Assay results from PubChem BioAssay (NCATS).
Several values for one entry are separate records, joined by “and”; a condition that tells them apart may be missing. Equal values may be shown once. This is one part of the list. Further columns of the screen follow, without active or inactive calls. Most of these compounds were active or inconclusive in the main read-out, so they are no random draw. The note in brackets gives the kind of curve behind each potency; many fits are weak.

Key:
[1] = qHTS Assay for Lipid Storage Modulators (AID 1519); conditions: Drosophila S3 cells, BODIPY lipid droplet/cell ratio, laser cytometry, cells loaded with oleic acid
How it was run: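 Cells seeded at 5,000 per well were treated with compounds over a concentration series and loaded with oleic acid (400 uM, as added). Lipid droplet fluorescence (488 nm excitation, 500-530 nm channel) was read by laser-scanning cytometry and normalized to 20 uM Triacsin C.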

[2] = qHTS Assay for Modulators of Human Peripheral Myelin Protein 22 (PMP22) Expression/Activity (AID 1967); conditions: Cell-based PMP22 reporter, dual-color luciferase ratio
How it was run: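 Engineered MSC80 cells, Pmp22-promoter green and EF-alpha red luciferase reporters; 24h compound treatment at 37 °C. Concentration-response fits on green, red and ratio signals, each overlap-corrected, with %Activity normalized to untreated wells.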

[3] = qHTS Validation Assay to Find Inhibitors of Chronic Active B-Cell Receptor Signaling (AID 485345); conditions: ABC-DLBCL cells, chronic BCR signaling reporter
How it was run: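 Read-out: ratio of filter-corrected green (IkappaBalpha fusion) to red (native) luciferase signal in doxycycline-induced TMD8 cells after 4 h at 37C. Titration spanned 46 uM–3 nM; Data were normalised to basal cells and 10 uM MG-132 wells.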

[4] = S16 Schwann cell PMP22 intronic element beta-lactamase assay (AID 624044); conditions: S16 rat Schwann cells, PMP22 element beta-lactamase FRET, 24 h; measured here: 460 nm blue channel; further: nearly all actives have a fitted effect of over 15% in size
How it was run: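 Beta-lactamase reporter under a PMP22 intronic regulatory element in stable S16 rat Schwann cells; 24 h compound exposure. 460 nm blue signal normalized between DMSO (0%) and potassium clavulanate, with 535 nm FRET tracking viability; curves classed by r2 and response.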

[5] = measured here: cell count channel max response
[6] = measured here: cell number channel AC50
[7] = measured here: lipid (BODIPY) channel AC50
[8] = measured here: lipid channel max response
[9] = measured here: red reporter channel AC50, EF-alpha promoter control reporter in MSC80 mouse Schwann cells
[10] = measured here: green reporter channel AC50, mouse Pmp22 promoter in mouse Schwann cells
[11] = measured here: CBG/CBR ratio read-out
[12] = measured here: CBR control luciferase (viability counter)
Tags describe the fitted curve by direction and shape.

| SMILES | max response [1, 5] | AC50 [1, 6] | AC50 [1, 7] | max response [1, 8] | AC50 [2, 9] | AC50 [2, 10] | AC50 [3, 11] | AC50 [3, 12] | AC50 [4] |
| --- | --- | --- | --- | --- | --- | --- | --- | --- | --- |
| O=C1c2c(O)cc(O)cc2OC(c2ccc(O)c(O)c2)C1O (stereo not drawn) | 33.2% | 39.8 µM [rising, single point] | 20 µM [rising, partial curve, poor fit] | 60.3% | 75.7 µM [falling, single point] | – | – | – | – |
| NCCNS(=O)(=O)c1cccc2c(Cl)cccc12 | 50.2% | 14.1 µM [rising, partial curve, poor fit] | 14.1 µM [rising, partial curve, poor fit] | 67.3% | 67.5 µM [falling, partial curve] | 60.1 µM [falling, partial curve] | 14.6 µM [falling, single point] | 8.2 µM [falling, single point] | – |
| N[C@H](C(=O)O)[C@H]1C[C@@H]1C(=O)O | 38.1% | 0.708 µM [falling, full curve, poor fit] | 0.708 µM [falling, full curve, poor fit] | 36.2% | 84.9 µM [falling, single point] | – | – | – | – |
| NCCCNCCCCNCCCN | -13.9% | 1.58 µM [falling, full curve, poor fit] | 1.41 µM [falling, full curve, poor fit] | -15.2% | 67.5 µM [falling, partial curve] | 60.1 µM [falling, partial curve] | – | – | – |
| COC(=O)C1=C(C)NC(C)=C([N+](=O)[O-])C1c1ccccc1C(F)(F)F (stereo not drawn) | 76.3% | 35.5 µM [rising, partial curve, poor fit] | 35.5 µM [rising, partial curve, poor fit] | 81.3% | 84.9 µM [falling, single point] | 75.7 µM [falling, partial curve] | – | – | – |
| COC(=O)c1c(C)[nH]c(C)c1C(=O)c1ccccc1Cc1ccccc1 | 83% and 7.24% | 2 µM [rising, full curve] | 1.58 µM [rising, full curve] | 102% and 4.13% | 84.9 µM [falling, single point] | 84.9 µM [falling, single point] | – | 2.31 µM [rising, partial curve, poor fit] | – |
| CCN(c1nc(N)c(C(=O)N=C(N)N)nc1Cl)C(C)C | 39% | 39.8 µM [rising, single point] | 39.8 µM [rising, single point] | 39.6% | 67.5 µM [falling, partial curve, poor fit] | 75.7 µM [falling, single point] | – | – | – |
| COc1ccc2c(c1)c(CC(=O)N1CCOCC1)c(C)n2C(=O)c1ccc(Cl)cc1 | 91.1% and -64.9% | 3.98 µM [rising, full curve] and 11.2 µM [falling, partial curve, poor fit] | 3.98 µM [rising, full curve] and 11.2 µM [falling, partial curve, poor fit] | 117% and -66.4% | 75.7 µM [falling, partial curve] | – | – | – | – |
| COc1cc2c(cc1C(F)(F)F)N(C(=O)Nc1cc(F)cc(-c3cccnc3)c1)CC2 | 45.8% and -41.5% | 1.41 µM [rising, full curve, poor fit] | 1.41 µM [rising, full curve] | 67.2% and -46.4% | 8.49 µM [falling, full curve] | 10.7 µM [falling, full curve] | – | – | – |
| COc1cc2c(cc1OC)-c1cc(=Nc3c(C)cc(C)cc3C)n(C)c(=O)n1CC2 | -68.8% | 44.7 µM [falling, single point] | 44.7 µM [falling, single point] | -67.6% | 33.8 µM [falling, partial curve] | 42.6 µM [falling, partial curve] | 5.17 µM [falling, partial curve] | 0.731 µM [rising, full curve] | 22.4 µM [falling, partial curve] |
| CCn1nc(C(=O)O)c(=O)c2cc3c(cc21)OCO3 | 40.2% and 35.2% | 5.01 µM [rising, full curve, poor fit] | 5.01 µM [rising, full curve, poor fit] | 40.5% and 48.7% | 84.9 µM [falling, single point] | – | – | – | – |
